No constants are given. Whether binding was seen depends on the method and setting. Binding seen in cells or lysates may run through a third protein. Some results given as binding are weak or reduced against the parent protein; the word gives no strength. Tags and fused reporters may be left off the sequences shown.

Protein sequences, listed by entry. Tags and fused reporters are not part of them. Lines headed by an entry give the natural chain unless they say otherwise; changes in a name come on top. Residues count along the entry.
UniProt Q04865: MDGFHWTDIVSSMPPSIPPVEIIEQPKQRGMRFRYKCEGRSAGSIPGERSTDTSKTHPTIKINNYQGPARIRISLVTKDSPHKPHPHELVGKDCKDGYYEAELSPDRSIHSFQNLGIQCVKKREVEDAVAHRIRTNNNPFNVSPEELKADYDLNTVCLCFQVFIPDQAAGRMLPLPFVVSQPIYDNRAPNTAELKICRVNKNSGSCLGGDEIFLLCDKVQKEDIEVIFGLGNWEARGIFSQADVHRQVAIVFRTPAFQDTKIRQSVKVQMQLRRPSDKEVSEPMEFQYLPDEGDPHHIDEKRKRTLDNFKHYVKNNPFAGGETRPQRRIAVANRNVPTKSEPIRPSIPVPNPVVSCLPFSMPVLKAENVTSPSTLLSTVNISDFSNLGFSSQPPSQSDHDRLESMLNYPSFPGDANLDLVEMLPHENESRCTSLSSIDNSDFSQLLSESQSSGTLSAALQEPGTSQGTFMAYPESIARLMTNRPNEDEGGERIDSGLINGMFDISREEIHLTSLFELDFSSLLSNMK
UniProt P19838, residues 1-433: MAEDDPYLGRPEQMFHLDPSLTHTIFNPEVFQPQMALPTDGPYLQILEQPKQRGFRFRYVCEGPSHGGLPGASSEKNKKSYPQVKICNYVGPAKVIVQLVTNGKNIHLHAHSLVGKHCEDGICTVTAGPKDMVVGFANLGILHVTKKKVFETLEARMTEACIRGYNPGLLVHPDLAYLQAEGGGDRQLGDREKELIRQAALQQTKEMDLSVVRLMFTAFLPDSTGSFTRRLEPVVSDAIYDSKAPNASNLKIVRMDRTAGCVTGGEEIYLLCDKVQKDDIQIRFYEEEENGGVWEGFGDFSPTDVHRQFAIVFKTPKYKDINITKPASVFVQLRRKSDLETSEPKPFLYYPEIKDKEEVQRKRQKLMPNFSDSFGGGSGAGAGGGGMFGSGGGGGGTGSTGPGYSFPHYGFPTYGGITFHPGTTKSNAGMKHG

What all share (experiment): pull-down; 15 µg recombinant 6xHis-Trx-S-tag protein mixed with 8 µl 35S-labelled in vitro translated protein in 50 µl Binding Buffer (20 mM Tris-HCl pH 7.5, 150 mM NaCl, 1 mM dithiothreitol, 0.6% Tween), 20 min at 37°C; captured on S protein-agarose 30 min at 4°C; SDS-PAGE and autoradiography; only the target purified
Assay [1] concerns the target T1, Xenopus β-Catenin fragment N-term (aa2–143) fused to 6xHis-Trx-S-tag (Xenopus) (UniProt P26233).
T1 sequence: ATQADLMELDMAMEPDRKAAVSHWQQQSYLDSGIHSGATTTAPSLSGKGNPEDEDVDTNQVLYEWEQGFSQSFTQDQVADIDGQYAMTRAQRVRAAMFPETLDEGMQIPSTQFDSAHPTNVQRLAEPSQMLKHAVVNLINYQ

Assay [2] has as its target T2, Xenopus β-Catenin fragment C-term (aa665–781) fused to 6xHis-Trx-S-tag (Xenopus) (UniProt P26233).
T2 sequence: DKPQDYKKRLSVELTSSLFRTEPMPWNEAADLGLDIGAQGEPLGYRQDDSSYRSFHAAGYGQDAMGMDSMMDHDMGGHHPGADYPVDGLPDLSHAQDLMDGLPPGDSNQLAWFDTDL

For assay [3], the target named is T3, full length Xenopus β-Catenin fused to 6xHis-Trx-S-tag (Xenopus) (UniProt P26233).
T3 sequence: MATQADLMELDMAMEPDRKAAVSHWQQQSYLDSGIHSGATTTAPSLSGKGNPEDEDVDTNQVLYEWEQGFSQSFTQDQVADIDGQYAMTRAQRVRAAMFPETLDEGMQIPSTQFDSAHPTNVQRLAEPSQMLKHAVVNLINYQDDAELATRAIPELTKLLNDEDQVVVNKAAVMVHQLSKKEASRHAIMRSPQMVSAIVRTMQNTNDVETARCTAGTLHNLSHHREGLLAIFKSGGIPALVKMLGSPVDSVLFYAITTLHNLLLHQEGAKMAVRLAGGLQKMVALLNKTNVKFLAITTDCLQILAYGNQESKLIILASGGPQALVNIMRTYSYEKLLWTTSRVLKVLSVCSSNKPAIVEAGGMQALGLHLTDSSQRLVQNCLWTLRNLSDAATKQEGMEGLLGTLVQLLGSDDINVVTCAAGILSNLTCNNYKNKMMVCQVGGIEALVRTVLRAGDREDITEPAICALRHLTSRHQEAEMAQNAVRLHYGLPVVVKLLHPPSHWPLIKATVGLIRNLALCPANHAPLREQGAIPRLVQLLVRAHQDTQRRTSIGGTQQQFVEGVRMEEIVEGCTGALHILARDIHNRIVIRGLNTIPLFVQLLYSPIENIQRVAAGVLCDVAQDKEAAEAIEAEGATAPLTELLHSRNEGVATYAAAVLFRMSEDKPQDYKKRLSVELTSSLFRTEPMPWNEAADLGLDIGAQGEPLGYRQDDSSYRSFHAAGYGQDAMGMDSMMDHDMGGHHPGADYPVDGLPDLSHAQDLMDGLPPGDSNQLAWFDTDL

Assay [4] concerns the target T4, Xenopus β-Catenin fragment arm1–12 (aa144–671) fused to 6xHis-Trx-S-tag (Xenopus) (UniProt P26233).
T4 sequence: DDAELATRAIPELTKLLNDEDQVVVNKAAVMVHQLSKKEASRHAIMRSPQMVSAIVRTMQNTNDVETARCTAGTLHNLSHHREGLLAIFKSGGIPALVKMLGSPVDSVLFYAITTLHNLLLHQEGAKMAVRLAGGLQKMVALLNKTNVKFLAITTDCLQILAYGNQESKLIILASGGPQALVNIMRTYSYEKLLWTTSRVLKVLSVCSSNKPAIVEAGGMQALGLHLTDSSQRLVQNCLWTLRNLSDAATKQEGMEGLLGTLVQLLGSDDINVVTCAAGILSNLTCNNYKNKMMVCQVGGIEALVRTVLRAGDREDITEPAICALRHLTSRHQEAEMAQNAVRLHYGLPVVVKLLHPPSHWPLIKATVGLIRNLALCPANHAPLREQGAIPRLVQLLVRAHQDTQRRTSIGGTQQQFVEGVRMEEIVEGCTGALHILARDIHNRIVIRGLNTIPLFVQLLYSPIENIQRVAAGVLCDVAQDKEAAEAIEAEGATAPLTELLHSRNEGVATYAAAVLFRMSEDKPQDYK

Assay [5] has as its target T5, Xenopus β-Catenin fragment arm1–8 (aa144–445) fused to 6xHis-Trx-S-tag (Xenopus) (UniProt P26233).
T5 sequence: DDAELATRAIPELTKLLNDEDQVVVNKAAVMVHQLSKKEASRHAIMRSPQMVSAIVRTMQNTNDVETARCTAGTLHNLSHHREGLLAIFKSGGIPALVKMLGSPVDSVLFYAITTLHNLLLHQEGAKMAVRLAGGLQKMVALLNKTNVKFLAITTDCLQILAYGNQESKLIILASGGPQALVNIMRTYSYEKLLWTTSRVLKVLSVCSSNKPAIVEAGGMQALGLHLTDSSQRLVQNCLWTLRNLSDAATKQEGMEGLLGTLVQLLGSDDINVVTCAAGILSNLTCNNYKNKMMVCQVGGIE

XrelA (from UniProt Q04865 1-527): the binding result in assay [1] is listed as “no binding (tested: 15 µg recombinant protein in 50 µl)”; in assay [2], “no binding (tested: 15 µg recombinant protein in 50 µl)”; in assay [3], “binds”; in assay [4], “binds”; in assay [5] it was “binds”.
In the case of human p50 (from UniProt P19838 1-433), the binding entry in assay [3] is given as “no binding (tested: 15 µg recombinant protein in 50 µl)”.
Still for that read-out and setting: in the case of “rel homology domain (RHD) of XRelA (from UniProt Q04865 18-306) (domain or fragment)” it was “binds”.

B1: XrelB (protein, UniProt P51510 1-497)
chain: MREQGREGSSFLSQQLGPTIEDVMDLINSDRDVISSPSVFVCEDAPSSILSTVTVAHYVPHEQCPSTSWAPQREGPNPELNITEQPKQRGMRFRYQCEGRSTGSILGEKSTEHNKTLPEIEIINCDGLEEIHVIVCLVWRDPPHRVHPHGLVGKDCHNGICEVTLNPQNGVAKHSFSNLGIQCVRKREIDSAVNERLKLNIDPYKAGKWRLHEEVDLNVVRLCFQASCTGPGFKYDIPPVLSDPIYDKKSTNTSELKISRMNKEYGRCEGGEEVYILCDKVQKEDILVIFGEDKWEARADFSQADVHRQIAIVLKTPPYHDLHITEPACVRVFLQRITDGIRSEGMPFVYMPRVKDPNGVHSKRKHRDCSQLGDIGDPDPHGIEMKRRKVRPSYADHLIPPYPDINLPLMDSFNHNEGYHDLPLMNPDEDAFHFLTEDPHFSDLLTHDPYFLDGYSNQFLPDQVNGVTAHLVGSSLALTDEEQPLPDCAFNDSGCRR
modifications: 35S-labelled
As for B1, the binding result in assay [3] is on record as “binds”.

The values are drawn from PMC3348924.
